In all, about 340,000 compounds went through this assay and about 12,000 (3.5%) were called active. Inconclusive results, whose numbers are uncertain, are shown with a selection of clear calls. Calls follow the shape of the dose curve; as a rule, active = well fitted inhibition curve with a large enough effect; inconclusive = small, poorly fitted or top-dose-only effect, or another doubt; inactive = no such curve, though single readings can be large or run the other way. Potencies of inconclusive entries are left out as doubtful fits.
Assay: qHTS Assay for Inhibitors of Hepatitis C Virus (HCV)
Conditions: Huh7.5.1 HCVcc-Cre (HCVcc is cell-culture hepatitis C virus) infection, luciferase reporter, 44 h; series mostly up to 41.8 µM
Procedure, shortened: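 Antiviral activity was scored by luciferase reporter output from cells infected with HCVcc-Cre (~0.5 moi) in presence of compound, 44 h infection period, cells seeded 1,000/well 4 h prior.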
Potency is read from the fitted curve at half-maximal effect; tags tell the direction and shape of the fitted curve.

Row | SMILES | Potency
1 | Cc1oc(-c2cccc(Cl)c2)nc1CN1CCCC(C(=O)NCCCN2CCOCC2)C1 (stereo unspecified) | inconclusive [inhibitor, partial curve]
2 | C=CCn1c(C)nnc1SCC(=O)Nc1cc(S(=O)(=O)N2CCCC2)ccc1Cl | inconclusive [inhibitor, single point]
3 | O=C(Nc1c[nH]c(=O)[nH]c1=O)c1ccccc1Cl | inactive
4 | C=CCOc1ccc(C(=O)O)cc1Cl | inactive
5 | Cc1ccc(C)c(NC(=O)CN(C)C(=O)c2ccccc2OCc2ccccc2Cl)c1 | inconclusive [inhibitor, single point]
6 | CC1CCN(CC(=O)Nc2ccc(S(=O)(=O)N3CCCCC3)cc2)CC1 | inconclusive [inhibitor, single point]
7 | Cc1ccc(C(C(=O)NCc2ccco2)N(C(=O)CNC(=O)c2cccs2)c2c(C)cc(C)cc2C)cc1 (stereo unspecified) | inconclusive [inhibitor, full curve]
8 | COC(=O)C(C(C)C)N(Cc1cc(OC)cc(OC)c1)S(=O)(=O)CCl (stereo unspecified) | inconclusive [inhibitor, partial curve, poor fit]
9 | CC[C@]1(C(=O)OC)[C@H]2C(=O)N(C)C(=O)[C@H]2[C@H]2CN=C(SCc3ccc(C#N)cc3)N21 | inconclusive [inhibitor, single point]
10 | COC(=O)[C@@]12CCCCN1[C@H](c1ccc(-c3ccccc3)cc1)[C@H]1C(=O)N(C)C(=O)[C@H]12 | inactive
11 | COc1ccc(NC(=O)CN2CCN(CC#N)CC2)cc1 | inactive
12 | O=C1CCc2cc(S(=O)(=O)Nc3ccccc3)ccc2N1 | inactive
13 | O=C(CCl)N(C1CCCC1)C1CCS(=O)(=O)C1 (stereo unspecified) | inconclusive [inhibitor, single point]
14 | Cn1c(N)c(C(=O)CSc2nn(-c3ccccc3)c(=S)s2)c(=O)n(C)c1=O | active: 10 µM
15 | Clc1cccc(Cl)c1Cn1cnc2c(N3CCCCCC3)ncnc21 | inconclusive [inhibitor, single point]
16 | CC(C)C[C@@H]1NC(=O)[C@H](C(C)C)NC(=O)c2cc([N+](=O)[O-])cc(I)c2NCC[C@@H](C(N)=O)NC1=O | inactive
17 | CCN(CC)CCCN=C1N[C@@H](c2cccc(F)c2)C(C(=O)OC)=C(C)N1Cc1ccccc1 | inconclusive [inhibitor, single point]
18 | c1ccc(CNc2nc(-c3ccccn3)nc3ccccc23)cc1 | active: 3.16 µM
19 | Cc1cccc(/C=C/c2onc(C)c2S(=O)(=O)N2CCC(C(=O)N3CCCCC3)CC2)c1 | active: 10 µM
20 | CCCCN(C(=O)C(C)Oc1ccc(Cl)cc1)c1c(N)n(CCCC)c(=O)[nH]c1=O (stereo unspecified) | inconclusive [inhibitor, single point]
21 | COc1ccc(N2CCN(C(=O)/C=C/c3ccco3)CC2)cc1 | inactive
22 | Cc1nc2ccc(NS(=O)(=O)c3cccc([N+](=O)[O-])c3)cc2s1 | active: 11.2 µM
23 | Cc1ccc(NC(=O)c2ccccc2O)cc1 | inconclusive [inhibitor, single point]
24 | CC1CCCC(NC(=O)NC(=O)COC(=O)C2=NN(c3ccccc3)C(=O)CC2)C1C (stereo unspecified) | inactive

Row | SMILES | Potency
25 | COCC(=O)N1CCc2ccc(NC(=O)c3ccc(C(F)(F)F)cc3)cc2C1 | inconclusive [inhibitor, partial curve]
26 | O=C(Cn1cc2c(n1)CCCC2)Nc1ccccc1Br | inactive
27 | COc1ccc(CCNC(=O)CCCN2C(=O)c3ccccc3C2=O)cc1 | inactive
28 | COc1ccc(Nc2oc(COc3ccc(OC)cc3)nc2C#N)cc1 | inconclusive [inhibitor, single point]
29 | Cc1ccc2cccc(OCCCOc3ccccc3F)c2n1 | active: 10 µM
30 | COc1ccc(NC(=O)CNC(=O)N2CC(=O)Nc3ccccc32)cc1OC | inconclusive [inhibitor, single point]
31 | COc1ccc(CCNCc2ccc(-c3ccccc3)cc2)cc1OC | inconclusive [inhibitor, partial curve, poor fit]
32 | COC(=O)c1cc(Cl)c(NC(=O)c2ccc(C(C)(C)C)cc2)cc1OC | inconclusive [inhibitor, partial curve]
33 | COc1ccc(CNC(=O)c2cc3cc(OC)ccc3oc2=O)cc1 | inconclusive [inhibitor, single point]
34 | Cc1nn(Cc2ccc(Cl)cc2Cl)c(C)c1NC(=O)c1ccc(COc2cc(Cl)ccc2Cl)o1 | inconclusive [inhibitor, partial curve]
35 | CCCCN(C)CCCNC(=O)c1cc(-c2cccs2)nc2ccccc12 | inconclusive [inhibitor, partial curve]
36 | CC(=O)N1CCCc2cc(S(=O)(=O)N3CCCC(C(=O)N4CCN(c5ccccc5)CC4)C3)ccc21 (stereo unspecified) | active: 11.2 µM
37 | CN(c1ccccc1)S(=O)(=O)c1cc(C(=O)OCC(=O)c2c(N)n(C)c(=O)n(C)c2=O)ccc1Cl | inconclusive [inhibitor, partial curve]
38 | COc1cc(/C=N/NC(=O)c2cccnc2)ccc1OCC(=O)Nc1ccccc1Cl | inconclusive [inhibitor, single point]
39 | COc1ccc(Nc2nc(N)nc(CN3CCC(Cc4ccccc4)CC3)n2)cc1 | inconclusive [inhibitor, partial curve, poor fit]
40 | O=C(C1CCCN(S(=O)(=O)c2ccccc2)C1)N1CCN(c2ccccc2)CC1 (stereo unspecified) | inconclusive [inhibitor, single point]
41 | CCN(C(=O)CSc1ccc(S(=O)(=O)N2CCOCC2)cn1)c1ccccc1 | inactive
42 | COc1ccc(/C=C/C(=O)Nc2cccc(S(=O)(=O)N3CCOCC3)c2)cc1OC | inconclusive [inhibitor, partial curve, poor fit]
43 | Cc1cc(NC(=O)c2ccc(F)cc2)n(-c2ccccc2)n1 | inactive
44 | O=C(CSc1nc2ccccc2[nH]1)Nc1nc(-c2cccc(Br)c2)cs1 | inactive
45 | O=C(Nc1nc(-c2cccc3ccccc23)cs1)c1ccc2c(c1)S(=O)(=O)c1ccccc1C2=O | inconclusive [inhibitor, partial curve]
46 | CC(=O)NCc1ccc(C(=O)CCl)cc1 | inconclusive [inhibitor, single point]
47 | CCOC(=O)Cc1c(C)nc2cc(-c3ccc(C(C)(C)C)cc3)[nH]n2c1=O | active: 12.6 µM
48 | O=C(COc1ccc2ccccc2c1)Nc1ccc2c3c(cccc13)CC2 | inconclusive [inhibitor, partial curve]

Row | SMILES | Potency
49 | Cc1csc(CN(C)C(=O)c2cn(Cc3cccc4ccccc34)nn2)n1 | inconclusive [inhibitor, partial curve]
50 | CSc1nnc(-c2cc3c(-c4ccccc4)nn(C)c3s2)n1C | inconclusive [inhibitor, single point]
51 | COc1ccc(OC)c(C(=O)COC(=O)c2cc(C)oc2C)c1 | inconclusive [inhibitor, single point]
52 | O=C(Nc1ccc([N+](=O)[O-])cn1)c1ccc2c(c1)OCO2 | inactive
53 | COc1ccc2c(c1)c(N=NC(N)=S)c(O)n2CC(=O)c1ccccc1 | inconclusive [inhibitor, single point]
54 | O=C1C=C(c2ccnc3cc(Cl)ccc23)C[C@@H](c2ccc3c(c2)OCO3)C1 | active: 3.16 µM
55 | CCC(=O)Nc1ccc(C(=O)Cn2ncc(Cl)c(Cl)c2=O)cc1 | inconclusive [inhibitor, single point]
56 | CCn1c2ccccc2c2cc(NC(C)=O)ccc21 | inconclusive [inhibitor, single point]
57 | CN1CCN(C(=O)C2CCN(c3ncc(C(F)(F)F)cc3Cl)CC2)CC1 | inconclusive [inhibitor, single point]
58 | Cc1cc(C)c(NC(=O)CN(C)C(=O)CCC(=O)c2ccc(C)s2)c(C)c1 | inconclusive [inhibitor, single point]
59 | Nc1nc2c(C(=O)N3CCOCC3)nnn2c2ccccc12 | inactive
60 | COc1ccc(NC(=O)CSc2nccn2Cc2ccccc2)c(OC)c1 | inactive
61 | O=C(CC(=O)c1c(F)cccc1Cl)c1ccccc1O | inactive
62 | COC(=O)C1=C(C)N(C)C(=O)NC1c1ccccc1 (stereo unspecified) | inconclusive [inhibitor, single point]
63 | CN(CCNC(=O)c1cc2c(=O)n(C)c3ccccc3c2n1C)Cc1ccccc1 | inconclusive [inhibitor, partial curve]
64 | O=C(COC(=O)C1CC1)c1c[nH]c2ccccc12 | inactive
65 | COc1cccc(C(=O)Nc2ccc3[nH]ncc3c2)c1 | inactive
66 | COc1ccc2nc(/C=N/NC(=O)[C@@H]3CCCN3C(=O)OC(C)(C)C)ccc2c1 | inactive
67 | O=C(COC(=O)C1CC2C=CC1C2)NCCc1ccccc1 (stereo unspecified) | inactive
68 | CC(=O)c1ccc(C(=O)NC2CC(C)(C)Cc3c2cnn3-c2ccccc2)cc1 (stereo unspecified) | inactive
69 | CC(OC(=O)c1ccc(CN2CCCC2=O)cc1)C(=O)Nc1ccc(Cl)cc1 (stereo unspecified) | inconclusive [inhibitor, single point]
70 | O=C(NCC1COc2ccccc2O1)C1C2C=CC3(CN(Cc4ccccc4Cl)C(=O)C13)O2 (stereo unspecified) | inconclusive [inhibitor, single point]
71 | COc1cc2cnc(-c3ccccc3)c(C(=O)c3ccc(F)cc3)c2cc1OC | inconclusive [inhibitor, partial curve]
